Measurements taken from the supplement of paper PMC12578646, “Prodrug florfenicol amine is activated by intrinsic resistance to target Mycobacterium abscessus” (Nature Microbiology, 2025).

Tests used:
Experiment in all cases: growth relative to untreated wells; higher = more growth (less inhibition)
[1] = system: Mycobacterium abscessus ATCC 19977 WhiB7 F24fs
Procedure: (§1)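 384-well two-fold dose series, two replicates; 5 days at 37 °C, then 24 h with resazurin; fluorescence scaled to growth and killed controls.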

[2] = system: Mycobacterium abscessus ATCC 19977 Eis2 E120fs
Procedure: as §1

[3] = system: Mycobacterium abscessus ATCC 19977 ΔwhiB7
Procedure: as §1

[4] = system: Mycobacterium abscessus ATCC 19977 Eis2 Y284*
Procedure: as §1

[5] = system: Mycobacterium abscessus ATCC 19977 Eis2 Y255*
Procedure: as §1

[6] = system: Mycobacterium abscessus ATCC 19977 WhiB7 R76del
Procedure: as §1

[7] = system: Mycobacterium abscessus ATCC 19977 Δeis2
Procedure: as §1

[8] = system: Mycobacterium abscessus ATCC 19977 Eis2 Y227D
Procedure: as §1

[9] = system: Mycobacterium abscessus ATCC 19977 WhiB7 L37P
Procedure: as §1

[10] = system: Mycobacterium abscessus ATCC 19977 Eis2 T258R
Procedure: as §1

[11] = system: Mycobacterium abscessus ATCC 19977 WhiB7 A51T
Procedure: as §1

[12] = system: Mycobacterium abscessus ATCC 19977 WhiB7 T70fs
Procedure: as §1

[13] = system: Mycobacterium abscessus ATCC 19977
Procedure: as §1

CC(C)/N=c1\cc2n(-c3ccc(Cl)cc3)c3ccccc3nc-2cc1Nc1ccc(Cl)cc1 [clofazimine]
Settings	growth [%]
[1], 0.0078125 µg/mL	99.2 ± 4.2
[1], 0.015625 µg/mL	95.1 ± 11
[1], 0.03125 µg/mL	91.313 ± 0.01
[1], 0.0625 µg/mL	96.2 ± 5
[1], 0.125 µg/mL	97.8 ± 4.6
[1], 0.25 µg/mL	104 ± 7.7
[1], 0.5 µg/mL	0.767 ± 1.4
[1], 1 µg/mL	-3.9 ± 2.2
[1], 2 µg/mL	-3.74 ± 1.3
[1], 4 µg/mL	3.27 ± 2.8
[1], 8 µg/mL	-3.32 ± 0.24
[1], 16 µg/mL	-0.545 ± 0.34
[2], 0.0078125 µg/mL	101.16 ± 0.097
[2], 0.015625 µg/mL	107 ± 4.2
[2], 0.03125 µg/mL	94.7 ± 5.5
[2], 0.0625 µg/mL	104 ± 13
[2], 0.125 µg/mL	102 ± 15
[2], 0.25 µg/mL	102 ± 28
[2], 0.5 µg/mL	8.92 ± 14
[2], 1 µg/mL	-3.94 ± 1
[2], 2 µg/mL	-4.23 ± 0.12
[2], 4 µg/mL	-3.13 ± 0.73
[2], 8 µg/mL	-1.07 ± 2.9
[2], 16 µg/mL	-2.07 ± 1.1
[3], 0.0078125 µg/mL	86.7 ± 3.8
[3], 0.015625 µg/mL	94.5 ± 6.5
[3], 0.03125 µg/mL	90.3 ± 14
[3], 0.0625 µg/mL	89.4 ± 5.3
[3], 0.125 µg/mL	85.9 ± 8
[3], 0.25 µg/mL	57.6 ± 26
[3], 0.5 µg/mL	19.4 ± 38
[3], 1 µg/mL	-7.09 ± 5
[3], 2 µg/mL	-5.71 ± 5.6
[3], 4 µg/mL	22.7 ± 46
[3], 8 µg/mL	-4.47 ± 5.8
[3], 16 µg/mL	4.44 ± 18
[4], 0.0078125 µg/mL	90.93 ± 0.54
[4], 0.015625 µg/mL	95.5 ± 1.1
[4], 0.03125 µg/mL	90 ± 5.5
[4], 0.0625 µg/mL	93.6 ± 4.8
[4], 0.125 µg/mL	94.9 ± 1.7
[4], 0.25 µg/mL	57.9 ± 29
[4], 0.5 µg/mL	2.17 ± 5.8
[4], 1 µg/mL	-4.28 ± 1.1
[4], 2 µg/mL	-4.17 ± 0.47
[4], 4 µg/mL	-2.54 ± 0.72
[4], 8 µg/mL	-3.68 ± 0.53
[4], 16 µg/mL	-4.11 ± 0.82
[5], 0.0078125 µg/mL	94.1 ± 1.2
[5], 0.015625 µg/mL	97.7 ± 7.7
[5], 0.03125 µg/mL	87.8 ± 8.5
[5], 0.0625 µg/mL	100 ± 4.7
[5], 0.125 µg/mL	88.3 ± 8
[5], 0.25 µg/mL	35.4 ± 19
[5], 0.5 µg/mL	18.8 ± 28
[5], 1 µg/mL	-5.41 ± 3.2
[5], 2 µg/mL	-5.79 ± 2.8
[5], 4 µg/mL	-2.67 ± 0.95
[5], 8 µg/mL	-3.34 ± 0.32
[5], 16 µg/mL	-6.81 ± 3.1
[6], 0.0078125 µg/mL	95.5 ± 3.1
[6], 0.015625 µg/mL	100.8 ± 0.31
[6], 0.03125 µg/mL	91.6 ± 14
[6], 0.0625 µg/mL	97 ± 5.5
[6], 0.125 µg/mL	88.8 ± 17
[6], 0.25 µg/mL	96 ± 10
[6], 0.5 µg/mL	-2.01 ± 0.16
[6], 1 µg/mL	-4.01 ± 0.32
[6], 2 µg/mL	-0.766 ± 3.7
[6], 4 µg/mL	-3.21 ± 0.39
[6], 8 µg/mL	-1.6 ± 0.73
[6], 16 µg/mL	-4.55 ± 2.2
[7], 0.0078125 µg/mL	95.91 ± 0.47
[7], 0.015625 µg/mL	94.4 ± 3.5
[7], 0.03125 µg/mL	91.27 ± 0.55
[7], 0.0625 µg/mL	93.3 ± 1.7
[7], 0.125 µg/mL	102 ± 9
[7], 0.25 µg/mL	18.5 ± 28
[7], 0.5 µg/mL	13.5 ± 24
[7], 1 µg/mL	-5.1 ± 1
[7], 2 µg/mL	-0.0564 ± 6.8
[7], 4 µg/mL	5.39 ± 14
[7], 8 µg/mL	-2.81 ± 1.5
[7], 16 µg/mL	-4.08 ± 0.74
[8], 0.0078125 µg/mL	99.7 ± 12
[8], 0.015625 µg/mL	112 ± 6
[8], 0.03125 µg/mL	95 ± 1.4
[8], 0.0625 µg/mL	99.1 ± 3.3
[8], 0.125 µg/mL	96.3 ± 3.8
[8], 0.25 µg/mL	64.2 ± 63
[8], 0.5 µg/mL	-0.878 ± 0.76
[8], 1 µg/mL	-2.75 ± 0.51
[8], 2 µg/mL	-2.66 ± 0.99
[8], 4 µg/mL	-2.2 ± 2
[8], 8 µg/mL	0.0453 ± 0.16
[8], 16 µg/mL	-1.25 ± 3.7
[9], 0.0078125 µg/mL	99.6 ± 3.1
[9], 0.015625 µg/mL	92.4 ± 12
[9], 0.03125 µg/mL	93.98 ± 0.66
[9], 0.0625 µg/mL	91.3 ± 7
[9], 0.125 µg/mL	98.7 ± 12
[9], 0.25 µg/mL	41.3 ± 53
[9], 0.5 µg/mL	-2.21 ± 1.1
[9], 1 µg/mL	-5.29 ± 0.7
[9], 2 µg/mL	-4.31 ± 0.49
[9], 4 µg/mL	1.9 ± 6.1
[9], 8 µg/mL	-3.79 ± 0.45
[9], 16 µg/mL	-0.575 ± 2.7
[10], 0.0078125 µg/mL	87.4 ± 1.3
[10], 0.015625 µg/mL	84.5 ± 11
[10], 0.03125 µg/mL	92 ± 3.7
[10], 0.0625 µg/mL	91.1 ± 1.2
[10], 0.125 µg/mL	90.8 ± 4.6
[10], 0.25 µg/mL	95.6 ± 15
[10], 0.5 µg/mL	4.45 ± 10
[10], 1 µg/mL	-4.67 ± 0.81
[10], 2 µg/mL	-3.33 ± 2.6
[10], 4 µg/mL	-2.57 ± 0.34
[10], 8 µg/mL	-1.35 ± 2.3
[10], 16 µg/mL	-3.45 ± 0.36
[11], 0.0078125 µg/mL	89.9 ± 1.9
[11], 0.015625 µg/mL	93.8 ± 2.1
[11], 0.03125 µg/mL	92.4 ± 10
[11], 0.0625 µg/mL	99.5 ± 4.3
[11], 0.125 µg/mL	94.2 ± 4
[11], 0.25 µg/mL	60.8 ± 74
[11], 0.5 µg/mL	-2.12 ± 0.049
[11], 1 µg/mL	-4.33 ± 0.73
[11], 2 µg/mL	0.791 ± 8.6
[11], 4 µg/mL	-3.15 ± 0.27
[11], 8 µg/mL	33.7 ± 53
[11], 16 µg/mL	-1.64 ± 0.24
[12], 0.0078125 µg/mL	91.3 ± 2.4
[12], 0.015625 µg/mL	96.8 ± 4.9
[12], 0.03125 µg/mL	96.9 ± 2.3
[12], 0.0625 µg/mL	95.5 ± 2.9
[12], 0.125 µg/mL	94.9 ± 3
[12], 0.25 µg/mL	42.8 ± 44
[12], 0.5 µg/mL	7.68 ± 15
[12], 1 µg/mL	-6.35 ± 0.66
[12], 2 µg/mL	-3.71 ± 2.8
[12], 4 µg/mL	-3.09 ± 0.34
[12], 8 µg/mL	-4.48 ± 0.3
[12], 16 µg/mL	-5.31 ± 1
[13], 0.0078125 µg/mL	92.5 ± 1.6
[13], 0.015625 µg/mL	98.88 ± 0.83
[13], 0.03125 µg/mL	94.6 ± 1.8
[13], 0.0625 µg/mL	94.04 ± 0.38
[13], 0.125 µg/mL	92.1 ± 15
[13], 0.25 µg/mL	65.2 ± 42
[13], 0.5 µg/mL	-1.13 ± 2.8
[13], 1 µg/mL	-3.73 ± 0.12
[13], 2 µg/mL	-4.12 ± 0.44
[13], 4 µg/mL	1.01 ± 2.9
[13], 8 µg/mL	0.78 ± 6.5
[13], 16 µg/mL	2.71 ± 8.4

± gives the standard deviation of the averaged measurements. M. abscessus ATCC 19977 and its deletion, point and complemented mutants after 5 days of drug at 37 °C plus 24 h of resazurin. Growth in % of untreated wells at the dose given (lower = more inhibition); checkerboards give % inhibition (higher = more inhibition); IC50 from the fitted curve (lower = more potent). No active / inactive call. IC50 values come from the same 384-well curves. Growth is not capped and can exceed 100%. The direction of the checkerboard scale is read from the raw signals. Capreomycin is a mixture.
